Assay results as given in article PMC4336329 (PLoS ONE, 2015).
In all, about 310,000 compounds went through this assay and about 2,200 (0.71%) showed an effect of 50% or more. Effects have a minus sign here. Some of the results follow.

Target: human ether-à-go-go-related gene (hERG) potassium channel (human, UniProt Q12809)
Test: primary screen, population patch clamp on CHO cells stably expressing hERG

Sequence of human ether-à-go-go-related gene (hERG) potassium channel (Q12809 whole entry, looked up): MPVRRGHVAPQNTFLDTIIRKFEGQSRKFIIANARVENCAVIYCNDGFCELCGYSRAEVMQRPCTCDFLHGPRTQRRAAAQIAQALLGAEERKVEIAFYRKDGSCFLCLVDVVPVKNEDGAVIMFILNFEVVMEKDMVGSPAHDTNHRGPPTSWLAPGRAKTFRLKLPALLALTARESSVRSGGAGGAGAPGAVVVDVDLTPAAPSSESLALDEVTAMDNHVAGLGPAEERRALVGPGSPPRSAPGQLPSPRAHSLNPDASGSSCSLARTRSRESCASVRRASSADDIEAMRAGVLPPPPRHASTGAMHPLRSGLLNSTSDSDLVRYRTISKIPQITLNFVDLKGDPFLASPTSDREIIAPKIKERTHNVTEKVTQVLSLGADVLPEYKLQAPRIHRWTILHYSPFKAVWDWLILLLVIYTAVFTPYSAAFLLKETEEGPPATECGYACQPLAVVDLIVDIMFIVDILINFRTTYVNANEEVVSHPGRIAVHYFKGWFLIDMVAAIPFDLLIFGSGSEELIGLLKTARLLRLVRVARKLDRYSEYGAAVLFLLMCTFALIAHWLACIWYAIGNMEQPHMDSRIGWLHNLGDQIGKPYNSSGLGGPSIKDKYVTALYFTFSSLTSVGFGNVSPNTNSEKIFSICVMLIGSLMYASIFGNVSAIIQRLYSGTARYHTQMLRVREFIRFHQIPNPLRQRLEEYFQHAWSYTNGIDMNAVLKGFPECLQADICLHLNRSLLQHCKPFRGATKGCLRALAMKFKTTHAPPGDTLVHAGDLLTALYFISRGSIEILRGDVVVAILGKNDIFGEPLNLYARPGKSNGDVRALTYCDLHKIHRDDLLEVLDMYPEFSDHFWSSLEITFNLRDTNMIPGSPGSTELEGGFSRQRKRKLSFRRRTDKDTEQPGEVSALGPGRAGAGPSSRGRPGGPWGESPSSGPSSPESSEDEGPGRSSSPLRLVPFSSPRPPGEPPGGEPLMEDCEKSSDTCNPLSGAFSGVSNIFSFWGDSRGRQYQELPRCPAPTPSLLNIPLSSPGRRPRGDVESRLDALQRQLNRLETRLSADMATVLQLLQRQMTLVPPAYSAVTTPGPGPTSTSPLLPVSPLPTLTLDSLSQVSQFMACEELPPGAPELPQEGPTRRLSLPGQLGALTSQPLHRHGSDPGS

| SMILES | hERG current change (%, negative = inhibition) at 1uM |
| --- | --- |
| COc1ccc(CCNC(=O)c2cccc(S(=O)(=O)N3CCCC3)c2)cc1OC | 18.9% |
| O=C(Cn1nc(CNc2ccc(Cl)cc2)[n+]2c1CCCCC2)c1ccc(Br)cc1.[Br-] | -13.3% |
| CC(=O)C1=C(c2ccc(Br)cc2)C(=O)c2ccccc2C1=O | 4.5% |
| CCCCc1ccc(NC(=O)COc2ccc(C(=O)Nc3ccccc3C)cc2)cc1 | 12.1% |
| Fc1ccc(CN2CCN(c3ncccn3)CC2)cc1 | 9.13% |
| CC1(C2CC2)NC(=O)NC1=O (centres unmarked) | -1.24% |
| O=C(/C=C/c1ccco1)Nc1nc(-c2ccc(F)c(F)c2)cs1 | 9.53% |
| O=C(c1cccs1)N1CCN(S(=O)(=O)c2ccccc2)CC1 | 6.69% |
| CCOC(=O)c1c(C)c(C)n(Cc2cccc(OC)c2OC)c1C | 8.24% |
| O=C(OCC(=O)N1CCCC1)c1ccccc1C(=O)c1ccccc1 | 5.6% |
| CCN(c1ccccc1)S(=O)(=O)c1ccc(Cl)c(NC(=O)COC(=O)c2ccc[nH]c2=O)c1 | 9.39% |
| C/C(N)=C(/C#N)C(=O)CSc1nc2ccccc2c(=O)n1-c1ccc(C)cc1 | 5.23% |
| CCOC(=O)c1cc(C)sc1NC(=O)c1ccc(Cl)s1 | -3.63% |
| CCCC(=O)Nc1cc(-c2nnc(OC)c3ccccc23)ccc1N1CCCCC1 | -2.95% |
| COC(=O)CCN1CCc2cc(N=Nc3ccc([N+](=O)[O-])cc3)ccc21 | 18% |
| COc1ccc(NC(=O)c2[nH]c(C)c(C(C)=O)c2C)cc1Cl | 3.57% |
| Cc1ccc(N2CCN(C(=O)c3cccc([N+](=O)[O-])c3)CC2)cc1Cl | 12.5% |
| CCCNc1nc(OC(C(F)(F)F)C(F)(F)F)nc(OC(C(F)(F)F)C(F)(F)F)n1 | 0.303% |
| O=C1NC(=S)N(C(=O)c2ccc(F)cc2)/C1=C/c1ccccc1 | 10.6% |
| Cc1cc(C)n2nc(SCc3ccccc3F)nc2n1 | 14.1% |
| CCOc1ccc(N2C(=O)CC(NCC#N)C2=O)cc1 (centres unmarked) | 12.4% |
| O=c1c2[nH]cnc2n(-c2cccc(F)c2)c(=O)n1Cc1ccccc1 | 9.6% |
| CS(=O)(=O)N(CC(=O)Nc1cccnc1)c1ccc2c(c1)OCO2 | 9.05% |

| SMILES | hERG current change (%, negative = inhibition) at 1uM |
| --- | --- |
| O=C(Nc1ccc(F)cc1)c1cccnc1NCCc1ccccc1 | 13.2% |
| N#CCCn1cc(C(N)=O)c(-c2cccs2)n1 | 15.4% |
| COc1ccc(CCn2ccc(O)c(Cc3ccc(Cl)cc3)c2=O)cc1OC | 3.53% |
| O=C(Nc1ccccc1Cl)NC1(C(=O)NCc2cccnc2)CCCCC1 | 14.2% |
| O=C1C(=O)N(CCN2CCOCC2)C(c2cccnc2)/C1=C(/O)c1ccc(Cl)cc1 (centres unmarked) | 15.3% |
| CN(C)C(=O)CSc1nnc(-c2cc(-c3cccs3)nc3ccccc23)o1 | 18.1% |
| CCN1C(=O)C(CC(=O)Nc2ccc(F)cc2)N(CCc2ccc(OC)cc2)C1=S (centres unmarked) | 8.45% |
| COc1cc(OC)c(OC)cc1/C=N/NC(=O)CC1C(=O)NN=C1C (centres unmarked) | 2.12% |
| Cc1cc(C)n2c(SCC(=O)Nc3ccc(F)cc3)nnc2n1 | 8.14% |
| COc1ccc2[nH]c(CN3CCN(CC(C)C)C(CCO)C3)c(C)c2c1 (centres unmarked) | 5.18% |
| O=C(N/N=C/C(Br)=C/c1ccccc1)c1ccccc1[N+](=O)[O-] | 13% |
| Cc1nonc1NC(=O)CSc1nc(CCC2CCCC2)nc2ccccc12 | 2.07% |
| O=[N+]([O-])c1ccc(N=Cc2sc3ccccc3c2O)cc1 | 6.38% |
| Cc1cc(Cc2ccc([N+](=O)[O-])cc2)c(C)cn1 | -2.88% |
| COc1ccccc1-n1c(SC(C)C(=O)NCC2CCCO2)nc2cc(Cl)ccc2c1=O (centres unmarked) | 12.1% |
| COc1cc(NC(=O)CN2CCN(c3ccccc3O)CC2)c(C)cc1[N+](=O)[O-] | 23.6% |
| COc1cccc(-c2c(C(=O)N/N=C/C3CC=CCC3)nnn2-c2nonc2N)c1 (centres unmarked) | 12.2% |
| Cc1ccc2nc(C3CCCCC3)[nH]c2c1 | 4.59% |
| Fc1ccc(CSc2ncnc3c2oc2ccccc23)cc1 | 5.5% |
| CCN(CC)S(=O)(=O)c1cc(NC(=O)CSc2nccn2C)ccc1C | 12.9% |
| NC(=O)c1ccsc1NC(=O)COC(=O)c1ccc(Cl)nc1 | 15.4% |
| O=C(O)c1ccccc1C(=O)NCCCCCCNC(=O)c1ccccc1C(=O)O | 7.98% |
| COc1ccc(NC(=O)C23CCC(C)(C(=O)O2)C3(C)C)cc1 (centres unmarked) | 0.126% |

| SMILES | hERG current change (%, negative = inhibition) at 1uM |
| --- | --- |
| CCOC(=O)CCc1c(C)c2ccc(OCc3nn[nH]n3)cc2oc1=O | 13.4% |
| CN1CCC(OC(=O)COc2ccc(Br)cc2)CC1.Cl | -6.88% |
| CCOC(=O)C1(C(C)(C)CC)CC(CSc2nc3ccccc3[nH]2)OC1=O.Cl (centres unmarked) | 6.93% |
| COc1cccc(-c2nc3n(n2)C(c2ccccc2Cl)C(C(N)=O)=C(C)N3)c1 (centres unmarked) | 6.26% |
| Cc1ccc(C(=O)NNc2c3ccccc3nc3ccccc23)cc1 | 4.58% |
| COc1ccc(NC2SC(=O)N(C)C2=O)cc1 (centres unmarked) | 11% |
| Cc1c(CCO)c(=O)[nH]n1C(=O)c1c(F)cccc1F | 4.97% |
| COc1ccc(CNc2ccccc2SC)cc1OC | 8.44% |
| CN1CCN(CCCCOc2ccccc2-c2ccccc2)CC1.O=C(O)C(=O)O | 16.8% |
| COc1ccc(NC(=O)COc2cccnc2[N+](=O)[O-])cc1OC | 15.8% |
| Cc1ccccc1-c1nnn(CC(=O)c2ccc(S(=O)(=O)N3CCCC3)cc2)n1 | 10.7% |
| O=C(NC1CC1)C1CC(=O)N(c2ccc(F)cc2)C1 (centres unmarked) | 20.1% |
| O=C(c1cc(Br)c[nH]1)N1CCCCC1 | 5.06% |
| COc1cccc(/C=C2\SC(=S)N(CCC(=O)NC3C=CS(=O)(=O)C3)C2=O)c1 (centres unmarked) | 13.2% |
| COC(=O)C(C)N1CCC(=O)c2ccccc2S1(=O)=O (centres unmarked) | 16.4% |
| CCNCCNC(=O)c1c(O)c2ccccc2n(CC)c1=O.Cl | 15.9% |
| Cc1nc2n(c(=O)c1CCN1CCC(c3noc4cc(F)ccc34)CC1)CCCC2 | -37.3% |
| O=C(Nc1ccccc1CC[N+](=O)[O-])N1CCN(c2ccccc2)CC1 | 9.41% |
| COc1ccc(Cc2nnc(NC(=O)c3cccc(F)c3)s2)cc1OC | 13.6% |
| Cc1nc2cc(C(=O)N3CCC4(CC3)OCCO4)ccc2n1-c1ccc(Br)cc1 | -0.812% |
| NC(N)=NC(N)=Nc1ccc2ccccc2c1 | 15.4% |
| CCCn1c(SCC(=O)N2c3ccc(F)cc3CCC2C)nnc1-c1ccccn1 (centres unmarked) | 5.59% |
| Cc1nn(-c2ccccc2)c2c1C(=O)N(Cc1ccccc1)C(=O)C(C)(C)C2 | -0.735% |

| SMILES | hERG current change (%, negative = inhibition) at 1uM |
| --- | --- |
| COc1ccc(NC(=O)c2ccccc2OCc2c(C)noc2C)cc1OC | -9.44% |
| O=C(c1cccc2cccc(O)c12)N1CCCCC1 | 0.37% |
| O=C(OCc1nnc(-c2ccccc2)o1)c1ccc2c(c1)OCCO2 | 1.76% |
| COC(=O)C1=C(C)NC(C)=C(C(=O)OC)C1C(=O)OCC(=O)c1ccc(Br)cc1 | 4.37% |
| COc1cc(CN2CCC(C(=O)N3CCC(C)CC3)CC2)cc(Br)c1O.O=C(O)C(=O)O | 7.15% |
| CCOc1ccc(NC(=O)CSc2nnc(C3CC3)n2N)cc1 | 14.8% |
| CCC(=O)NNC(=O)CCC(=O)Nc1ccc(C)cc1C | 6.39% |
| COc1ccccc1N1CCN(C(=O)CCCC2=NS(=O)(=O)c3ccccc3N2)CC1 | 6.38% |
| CCOC(=O)c1ccc(NC(=O)Cn2nnc(-c3ccccc3C)n2)cc1 | 2.64% |
| CC(Sc1n[nH]c(=O)[nH]c1=O)C(=O)OCc1ccccc1 (centres unmarked) | 11.6% |
| CC(C)Oc1ccccc1-c1cc(C(=O)N/N=C/c2cccnc2)c2ccccc2n1 | 8.24% |
| COc1ccc(N2CCN(c3nc4cc(C)ccc4cc3C=O)CC2)cc1 | 13.5% |
| C=C(C)c1cccc(C(C)(C)NC(=O)NC2CCCC2)c1 | 5.23% |
| CSC1=C(C#N)C(=O)NC(c2ccccc2O)S1 (centres unmarked) | 12.8% |
| COc1cc2c(cc1OC)C(c1cccc([N+](=O)[O-])c1)=NCC2 | 11.8% |
| CCOc1ccc(NC(=O)CCN2CCN(C)CC2)cc1 | 10.5% |
| CCOc1cc(C(=O)N2CCOCC2)ccc1OCc1ccccc1 | 10.7% |
| COc1ccc(Oc2c(Cl)cnn(-c3ccc(Cl)c(Cl)c3)c2=O)cc1 | 7.61% |
| CC(C)(C)c1ccc(NC(=O)C2=CC=CN3CCS(=O)(=O)N=C23)cc1 | 1.77% |
| Cc1ccc(CNC(=O)c2ccc(N3CCC4(CC3)CC(c3cccc(Br)c3)=NO4)c(NC(=O)c3ccco3)c2)cc1 | 12.2% |
